Results on ten compounds are retold here after the supplement of paper PMC4604168 (melanoma cell lines).

The list shows a part of the results. Most values come without repeats; read them as rough.
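Also: cells treated in 1,536-well plates, then fixed and DAPI-stained, with nuclei counted from automated high-throughput microscope images.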

The experiment relates to MZ2-MEL. Kind of experiment: cell count relative to DMSO control; melanoma cells; higher = more viable cells. Particulars: library dose: standard library concentration; 72 h.
Take `CO[C@H]1C[C@@H]2CC[C@@H](C)[C@@](O)(O2)C(=O)C(=O)N2CCCC[C@H]2C(=O)O[C@H]([C@H](C)C[C@@H]2CC[C@@H](OCCO)[C@H](OC)C2)CC(=O)[C@H](C)/C=C(\C)[C@@H](O)[C@@H](OC)C(=O)[C@H](C)C[C@H](C)/C=C/C=C/C=C/1C` [everolimus] + C=CCNC1=C2C[C@@H](C)C[C@H](OC)[C@H](O)[C@@H](C)/C=C(\C)[C@H](OC(N)=O)[C@@H](OC)/C=C\C=C(/C)C(=O)NC(=CC1=O)C2=O [Tanespimycin] (first compound 0.1 µM, partner dose 0.01 µM): the cell count worked out at 70.5%.
For `CC(=O)O[C@@]12CO[C@@H]1C[C@H](O)[C@@]1(C)C(=O)[C@H](O)C3=C(C)[C@@H](OC(=O)[C@H](O)[C@@H](NC(=O)OC(C)(C)C)c4ccccc4)C[C@@](O)([C@@H](OC(=O)c4ccccc4)[C@H]21)C3(C)C` [Docetaxel] + CC1(C)NC(=O)N(c2ccc([N+](=O)[O-])c(C(F)(F)F)c2)C1=O [nilutamide] (first compound 0.0005 µM, partner dose 5 µM) the value was 39.8%; for `CC(=O)c1c(C)c2cnc(Nc3ccc(N4CCNCC4)cn3)nc2n(C2CCCC2)c1=O` [palbociclib] + NCC(=O)Nc1ccc(-n2nc(C(F)(F)F)cc2-c2ccc3c(ccc4ccccc43)c2)cc1 [OSU03012] (first compound 0.2 µM, partner dose 5 µM), 63.1%; for `Nc1nc(F)nc2c1ncn2[C@@H]1O[C@H](CO)[C@@H](O)[C@@H]1O` [fludarabine] + Nc1cccc2c1CN(C1CCC(=O)NC1=O)C2=O [lenalidomide] (first compound 1 µM, partner dose 5 µM), 86.7%.
As for `CC(=O)O[C@@]12CO[C@@H]1C[C@H](O)[C@@]1(C)C(=O)[C@H](O)C3=C(C)[C@@H](OC(=O)[C@H](O)[C@@H](NC(=O)OC(C)(C)C)c4ccccc4)C[C@@](O)([C@@H](OC(=O)c4ccccc4)[C@H]21)C3(C)C` [Docetaxel] + Oc1cc(-c2nc(-c3ccccc3)[nH]c2-c2ccncc2)ccc1Cl [L779450] (first compound 0.0005 µM, partner dose 1 µM), the figure is 41.2%; as for `Nc1ncn([C@H]2C[C@H](O)[C@@H](CO)O2)c(=O)n1` [decitabine] + CC1(C)NC(=O)N(c2ccc([N+](=O)[O-])c(C(F)(F)F)c2)C1=O [nilutamide] (first compound 0.5 µM, partner dose 5 µM), 94.2%; as for `CC(=O)O[C@@]12CO[C@@H]1C[C@H](O)[C@@]1(C)C(=O)[C@H](O)C3=C(C)[C@@H](OC(=O)[C@H](O)[C@@H](NC(=O)OC(C)(C)C)c4ccccc4)C[C@@](O)([C@@H](OC(=O)c4ccccc4)[C@H]21)C3(C)C` [Docetaxel] + CN(NC(=O)CC(=O)NN(C)C(=S)c1ccccc1)C(=S)c1ccccc1 [STA4783] (first compound 0.0005 µM, partner dose 0.03 µM), 43.9%.
In turn, `CC(=O)O[C@@]12CO[C@@H]1C[C@H](O)[C@@]1(C)C(=O)[C@H](O)C3=C(C)[C@@H](OC(=O)[C@H](O)[C@@H](NC(=O)OC(C)(C)C)c4ccccc4)C[C@@](O)([C@@H](OC(=O)c4ccccc4)[C@H]21)C3(C)C` [Docetaxel] + O=C(O)[C@@H]1[O][Sb](=[O])([O][Sb]2(=[O])[O][C@H]([C@H](O)CO)[C@H](O)[C@H](C(=O)O)[O]2)[O][C@H]([C@H](O)CO)[C@@H]1O [stibogluconate] (first compound 0.0005 µM, partner dose 10 µM) had a cell count of 41.9%.
For `Nc1ccn([C@@H]2O[C@H](CO)[C@@H](O)C2(F)F)c(=O)n1` [gemcitabine] + O=C(O)C(=O)Nc1sc2c(c1C(=O)O)CCNC2 [TCS401] (first compound 0.002 µM, partner dose 8.33333 µM) the value was 79.5%; for `CC(=O)O[C@@]12CO[C@@H]1C[C@H](O)[C@@]1(C)C(=O)[C@H](O)C3=C(C)[C@@H](OC(=O)[C@H](O)[C@@H](NC(=O)OC(C)(C)C)c4ccccc4)C[C@@](O)([C@@H](OC(=O)c4ccccc4)[C@H]21)C3(C)C` [Docetaxel] + C[C@]1(c2nc3c(C(N)=O)cccc3[nH]2)CCCN1 [Veliparib] (first compound 0.0005 µM, partner dose 7 µM), 33.4%.
